# Experimental data reported in PubChem BioAssay AID686978 (National Center for Advancing Translational Sciences (NCATS), 2013).
# Out of some 420,000 compounds screened, about 64,000 (15%) were called active. The shares of active, inactive and inconclusive entries below differ from those in the screen. Calls follow the shape of the dose curve; as a rule, active = well fitted inhibition curve with a large enough effect; inconclusive = small, poorly fitted or top-dose-only effect; inactive = flat fitted curve, though single readings scatter. Potencies of inconclusive entries are left out as doubtful fits.
# Test: qHTS for Inhibitors of human tyrosyl-DNA phosphodiesterase 1 (TDP1): qHTS in cells in absence of CPT; also: nearly all actives have a fitted effect of over 55% in size
# Details: DT40 Tdp1-/- hTDP1 cells, no CPT, ATP luminescence, 48 h
# Outline: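 No-CPT arm: Tdp1-/-;hTDP1 DT40 cells (400/well) plus compounds, incubated ≥48 hr at 37 °C. Readout CellTiter-Glo luminescence.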
# [1] = activity change, negative = growth inhibition: at 46.2 µM (top of the series) unless noted
# % is scaled to controls: 0 for no effect and ±100 for the full control effect; potency is read from the fitted curve at half-maximal effect; tags tell the direction and shape of the fitted curve.
smiles,measurement,setting,value
CCc1cc2cc(C)cc(C)c2nc1Cl,Potency,[1],"inconclusive [inhibitor, single point]"
CCN(C(=O)c1cc([N+](=O)[O-])ccc1NCc1cccnc1)c1ccccc1,Potency,[1],"inconclusive [inhibitor, single point]"
CN1CCc2c(c3cnc4cc(Cl)ccc4c3n2C)C1,Potency,[1],"inconclusive [inhibitor, single point]"
CCCCN(CCCC)CCNC(=O)Cn1nc(C)n2c(cc3sccc32)c1=O,Potency,[1],"inconclusive [inhibitor, single point]"
O=C(NCCCN1CCOCC1)c1ccc(CSc2ccc(Cl)cc2)cc1,Potency,[1],active: 20.6 µM
CC(C)c1ccc(NC(=O)CS(=O)(=O)c2cccc3nsnc23)cc1,"activity change, negative = growth inhibition",[1],inconclusive: -32.6% [inhibitor]
Cc1ccc(S(=O)(=O)NC(CC(C)C)C(=O)NCC(c2ccco2)N2CCCCC2)cc1 (configuration not stated),Potency,[1],"inconclusive [inhibitor, single point]"
CCc1nnc(NC(=O)CSc2nnnn2-c2cccc(C(=O)OC)c2)s1,Potency,[1],"inconclusive [inhibitor, single point]"
COc1ccc(NS(=O)(=O)c2cc(Br)cc3c2N(C(=O)C2CC2)CC3)cc1OC,Potency,[1],active: 2.06 µM
COc1ccc(-c2c(N)cnc(C(=O)O)c2C)c(OCc2ccccc2)c1OC,Potency,[1],"inconclusive [inhibitor, single point]"
C=CCN(c1ccc(C(=O)Nc2cccc([N+](=O)[O-])c2)cc1)S(C)(=O)=O,Potency,[1],"inconclusive [inhibitor, partial curve, poor fit]"
CC1(C)C(=O)CCC2(C)C1=CCC1C2C(=O)CC2(C)C1CCC2(O)C(=O)CO (configuration not stated),Potency,[1],"inconclusive [inhibitor, partial curve]"
CCOc1ccc(CCN2C(=O)C(=O)N([C@@H](Cc3ccccc3)CN3CCC[C@H]3CN3C(=O)C(=O)NC[C@@H]3Cc3ccc(O)cc3)C[C@@H]2Cc2ccc(O)cc2)cc1,Potency,[1],"inconclusive [inhibitor, single point]"
O=C(COC(=O)/C=C/c1ccc([N+](=O)[O-])cc1)Nc1ccc2[nH]c(=O)[nH]c2c1,Potency,[1],inactive
O=C(Nc1ccon1)c1cccc(Cl)c1,Potency,[1],inactive
CCC1C(=O)C(CC)C(c2ccccc2)NC1c1ccccc1 (configuration not stated),Potency,[1],inactive
Cc1c(N=Cc2ccco2)c(=O)n(-c2ccccc2)n1C,Potency,[1],inactive
Cc1ccc2occ(CC(=O)N(Cc3ccc(Cl)cc3)C3CCS(=O)(=O)C3)c2c1 (configuration not stated),Potency,[1],"inconclusive [inhibitor, single point]"
CCCCNCc1cc(OCC)c(OCC)cc1Br,Potency,[1],"inconclusive [inhibitor, partial curve]"
Cc1ccccc1NC(=O)NCCCCc1ccccc1,Potency,[1],"inconclusive [inhibitor, single point]"
O=c1c(CCc2ccccc2)nc2cnc(Nc3ccccc3)nc2n1C[C@H]1CCCO1,Potency,[1],inactive
CCOC(=O)N1CCN(C(=O)Cn2c(=O)sc3ccccc32)CC1,Potency,[1],inactive
COc1ccc(CNC(=O)c2cnccn2)cc1,Potency,[1],inactive
CN(C)CC(C)(C)CNC(=O)c1cnn(-c2nccc(-c3ccc4c(c3)OCO4)n2)c1-c1ccco1,Potency,[1],"inconclusive [inhibitor, partial curve, poor fit]"
COc1cc(CCN=Cc2cc(Cl)cc(Cl)c2O)c([N+](=O)[O-])cc1OC,Potency,[1],"inconclusive [inhibitor, partial curve]"
Cc1ccc(C)c(NC(=O)CSc2nnc(C3CCCCC3)o2)c1,Potency,[1],inactive
CCN(CC)CCn1c(NC(=O)c2ccc(Cl)cc2)nc2ccccc21,Potency,[1],"inconclusive [inhibitor, single point]"
Cn1c(SCC(=O)N/N=C/C=C/c2ccco2)nc2ccccc21,Potency,[1],active: 18.4 µM
CN(C)C(=O)c1ccc(-c2cc3onc(-c4ccccc4)c3c(=O)n2C)cc1,Potency,[1],active: 16.4 µM
CN(Cc1ccco1)c1ncnc2ccc(-c3cccc(NS(C)(=O)=O)c3)cc12,Potency,[1],"inconclusive [inhibitor, single point]"
COc1ccc(CCN2C(=O)CC(C(N)=O)SC2=Nc2ccccc2)cc1 (configuration not stated),Potency,[1],inactive
c1ccc2c(c1)Nc1cc3ccccc3cc1O2,"activity change, negative = growth inhibition",[1],inconclusive: -32.4% [inhibitor]
COc1cccc(NC(=O)n2ncc3c(C)cccc32)c1,Potency,[1],"inconclusive [inhibitor, single point]"
Cc1ccc(-c2csc(C3C(N)=NC(S)=C(C#N)C34CCCCC4)n2)cc1 (configuration not stated),Potency,[1],"inconclusive [inhibitor, single point]"
Cc1ccc(S(=O)(=O)N2CCC(C(=O)N/N=C/c3cccnc3)CC2)cc1,Potency,[1],inactive
CC1(C)CC(=O)C2=C(C1)OC(N)=C(C#N)C21CCN(C(=O)OCc2ccccc2)CC1,Potency,[1],"inconclusive [inhibitor, single point]"
Cc1ccc(C(=O)N2CCCC(c3ccccc3)=N2)cc1,Potency,[1],inactive
O=[N+]([O-])C(=C1Nc2ccccc2N1)C(Cl)=C(Cl)Cl,Potency,[1],"inconclusive [inhibitor, single point]"
CCCCNC(=S)NCc1ccc2c(c1)cc(C)n2C,Potency,[1],"inconclusive [inhibitor, single point]"
FC(F)(F)c1ccccc1CN1CCN(C2CCCCCC2)CC1,Potency,[1],"inconclusive [inhibitor, single point]"
Cc1ccc(N2C(=O)/C(=C\c3ccc(C(C)C)cc3)N=C2SC2CCOC2=O)cc1 (configuration not stated),Potency,[1],"inconclusive [inhibitor, single point]"
O=C(NNC(=S)NC1CCCCC1)c1ccccc1Cl,Potency,[1],"inconclusive [inhibitor, single point]"
CC(=O)OCC(=O)C12OC(C)(C)OC1CC1C3CC=C4CC(O)CCC4(C)C3CCC12C (configuration not stated),Potency,[1],"inconclusive [inhibitor, single point]"
O=C1CC(C(=O)Nc2ccccc2)C2(CCCCC2)O1 (configuration not stated),Potency,[1],"inconclusive [inhibitor, single point]"
O=C(CCC1CCCCC1)NCCN1C2=NC[C@@H](Cc3ccccc3)N2C[C@H]1Cc1ccc(O)cc1,Potency,[1],active: 16.4 µM
Cc1cccc(OCC(=O)Nc2nc3c(s2)CC(C(C)(C)C)CC3)c1C (configuration not stated),Potency,[1],active: 18.4 µM
Cc1ccc(C)c(N(CC(=O)NC2CCCC2)C(=O)c2cc3cc4cccc(C)c4nc3s2)c1,Potency,[1],"inconclusive [inhibitor, single point]"
O=C(Nc1sc2c(c1C(=O)O)CCCC2)c1cccc(Cl)c1,Potency,[1],inactive
CCC(=O)c1ccc(OCC(O)CN2CCN(c3ccc(F)cc3)CC2)cc1 (configuration not stated),Potency,[1],inactive
Cc1ccc(-c2ccc(SCC(=O)NC3CCCCC3)nn2)cc1,Potency,[1],"inconclusive [inhibitor, single point]"
Cc1ccc2c(/C=C/c3ccc(N(C)C)cc3)c(C)cnc2c1,Potency,[1],"inconclusive [inhibitor, single point]"
Cc1ccc(-c2noc(CNS(=O)(=O)c3ccc(F)cc3)n2)cc1,Potency,[1],"inconclusive [inhibitor, partial curve]"
Cc1ccc2c(C)c(C(=O)N(Cc3cccs3)C3CCS(=O)(=O)C3)oc2c1 (configuration not stated),Potency,[1],"inconclusive [inhibitor, single point]"
CCc1ccc(Nc2nn(-c3ccc(OC(F)(F)F)cc3)nc2C(C)=O)cc1,Potency,[1],inactive
CC(C)c1ccc(N(CC(=O)NC2CCCC2)C(=O)CCC(=O)Nc2ccccn2)cc1,Potency,[1],"inconclusive [inhibitor, single point]"
O=C(Cc1ccccc1)N/N=C/c1ccc[nH]1,Potency,[1],inactive
CC(C)(C)OC(=O)N1CCC(C(=O)Nc2ccc3c(c2)CCC3)CC1,Potency,[1],"inconclusive [inhibitor, single point]"
COCCNS(=O)(=O)c1cc(-c2nn(C)c(=O)c3ccccc23)ccc1C,"activity change, negative = growth inhibition",[1],inconclusive: -30.6% [inhibitor]
O=C(Nc1nnc(Cc2ccccc2)s1)C1CCN(C(=O)c2ccco2)CC1,Potency,[1],inactive
Clc1cccc(-c2nc(-c3ccccn3)no2)c1,Potency,[1],"inconclusive [inhibitor, single point]"
Cc1nc(CS(=O)c2ccccc2)cc(N2CCOCC2)n1 (configuration not stated),Potency,[1],inactive
CCN(CC)c1ccc(NC(=O)c2cnc3c(-c4ccccc4)c(C)nn3c2C)c(C)c1,Potency,[1],"inconclusive [inhibitor, single point]"
Cc1c(NC(=O)c2cc(-c3ccc(F)cc3)on2)c(=O)n(-c2ccccc2)n1C,"activity change, negative = growth inhibition",[1],inconclusive: -30.2% [inhibitor]
same,"activity change, negative = growth inhibition",at 46.2 µM (top of the series),inactive: -5.13%
COc1cc2c(C(=O)NCc3ccc(C)o3)cn(CC(C)C)c(=O)c2cc1OC,Potency,[1],"inconclusive [inhibitor, single point]"
CC(C)CC1Nc2ncnc(N3CCN(c4ccccc4)CC3)c2N(Cc2ccc(Br)cc2)C1=O (configuration not stated),Potency,[1],active: 18.4 µM
CC(C)(C)c1csc(NC(=O)Cn2cnc3ccccc3c2=O)n1,Potency,[1],"inconclusive [inhibitor, single point]"
COCCn1c(SCC(=O)c2ccc(C)cc2C)nc2cc(C(=O)NC3CCCC3)ccc2c1=O,Potency,[1],inactive
Cn1nnc2c(N3CCN(c4ccccc4)CC3)ncnc21,Potency,[1],"inconclusive [inhibitor, partial curve]"
Cc1cc(N2CCN(C)CC2)nc2ccc(NC(=S)N3CCCCCC3)cc12,Potency,[1],inactive
Nc1ccc(-c2nc3ccc(N)cc3o2)cc1,Potency,[1],"inconclusive [inhibitor, single point]"
NC(=S)n1[nH]c(-c2ccc([N+](=O)[O-])cc2)c(N=Nc2cccc([N+](=O)[O-])c2)c1=O,Potency,[1],"inconclusive [inhibitor, single point]"
